A lower IC50 marks a more sensitive line; where the fit passes the top or lowest dose, that dose stands as a limit. AUC is the area under the same curve over the 256-fold range up to the top dose, as a fraction; values near 1 show little effect. For part of these data: The top dose, if marked as inferred, was derived from the fitted curves, not read from the paper. For part of these data: Where an entry number is given, a second screen of the drug exists; the two often differ.

Common to all, as to test: Viability of human cancer cell lines after 72 h of drug (GDSC screen)
Compound in assay [1]: NCC(=O)Nc1ccc(-n2nc(C(F)(F)F)cc2-c2ccc3c(ccc4ccccc43)c2)cc1 [OSU-03012]
As to conditions: top dose 16 µM; top dose inferred. On the procedure: (§1)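 Human cancer cell lines in 384-well plates, medium with 10% serum, drug for 72 h over a 256-fold dose range (nine 2-fold or five 4-fold steps up to the top dose). Adherent lines were fixed and stained with the nucleic acid dye Syto60, suspension lines read with resazurin; signal relative to control wells, capped at 0 and 100%. One two-parameter sigmoid per drug and line, fitted in a mixed model over all curves with the slope shared within a line.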

Compound in assay [2]: C#Cc1cccc(Nc2ncnc3cc(OC)c(OCCCCCCC(=O)NO)cc23)c1 [CUDC-101]
To be noted: top dose 5.12 µM; top dose inferred. On the procedure:
as §1

Compound in assay [3]: Fc1cc(-c2ccnc(Nc3ccc(-n4cnc(N5CCOCC5)n4)cc3)n2)cc(N2CCOCC2)c1 [JNK-9L]
As to conditions: top dose 5.12 µM; top dose inferred. As to the method: as §1

Compound in assay [4]: OC[C@H](Cc1ccccc1)Nc1nc(Oc2ccc3c(c2)CCC3)nc2c1ncn2Cc1ccc(-c2ccccc2)cc1 [QS11]
To be noted: top dose 10.24 µM. As to the method: as §1

Compound in assay [5]: CC(C)(C)c1cc(NC(=O)Nc2ccc(-c3cn4c(n3)sc3cc(OCCN5CCOCC5)ccc34)cc2)no1 [AC220]
As to conditions: top dose 1.024 µM; top dose inferred. As to the method: as §1

Compound in assay [6]: COc1cc(F)c(F)c(Nc2ccc(I)cc2F)c1NS(=O)(=O)C1(C[C@H](O)CO)CC1 [RDEA119]
To be noted: top dose 5 µM, top dose inferred. On the procedure: as §1

On to MDA-MB-231 (breast, adherent), for which the AUC in assay [1] worked out at 0.675; in assay [2] it was 0.635; in assay [3] it was 0.681; in assay [4], 0.929; in assay [5] it was 0.986; in assay [6] (screen: GDSC drug entry 1014) it was 0.698. Also, the AUC in assay [6] (screen: GDSC drug entry 1526) is 0.774. The IC50 is 3190 nM in assay [1]; 773 nM in assay [2]; 1060 nM in assay [3]; greater than 10200 nM in assay [4]; greater than 1020 nM in assay [5]; 1170 nM in assay [6] (screen: GDSC drug entry 1014). In addition, the IC50 in assay [6] (screen: GDSC drug entry 1526) was determined as 2080 nM.
With MDA-MB-436 (breast, adherent), the AUC in assay [1] was 0.875; in assay [2], 0.775; in assay [3], 0.663; in assay [4] it was 0.98; in assay [5] it was 0.983; in assay [6] (screen: GDSC drug entry 1014), 0.805. Besides, the AUC in assay [6] (screen: GDSC drug entry 1526) was determined as 0.896. Further, the IC50 in assay [1] was greater than 16000 nM; in assay [2], 2570 nM; in assay [3], 1030 nM; in assay [4], greater than 10200 nM; in assay [5], greater than 1020 nM; in assay [6] (screen: GDSC drug entry 1014), 3350 nM. Besides, in assay [6] (screen: GDSC drug entry 1526), the half-inhibitory concentration (IC50) was greater than 5000 nM.
Consider MDA-MB-453 (breast, adherent), for which the AUC was 0.805 in assay [1]; 0.255 in assay [2]; 0.809 in assay [3]; 0.903 in assay [4]; 0.966 in assay [5]; 0.979 in assay [6] (screen: GDSC drug entry 1014). For the same cell line, the AUC in assay [6] (screen: GDSC drug entry 1526) is 0.952. Besides, the half-inhibitory concentration (IC50) was 9160 nM in assay [1]; 58.1 nM in assay [2]; 3060 nM in assay [3]; greater than 10200 nM in assay [4]; greater than 1020 nM in assay [5]; greater than 5000 nM in assay [6] (screen: GDSC drug entry 1014). For the same cell line, the half-inhibitory concentration (IC50) in assay [6] (screen: GDSC drug entry 1526) is greater than 5000 nM.
With MDA-MB-468 (breast, adherent), the AUC in assay [1] was 0.845; in assay [2], 0.715; in assay [3] it was 0.643; in assay [4], 0.977; in assay [5], 0.979; in assay [6] (screen: GDSC drug entry 1014) it was 0.885. In assay [6] (screen: GDSC drug entry 1526), the AUC came out at 0.935. Besides, the IC50 was 10900 nM in assay [1]; 1270 nM in assay [2]; 783 nM in assay [3]; greater than 10200 nM in assay [4]; greater than 1020 nM in assay [5]; greater than 5000 nM in assay [6] (screen: GDSC drug entry 1014). In addition, the 50% inhibitory concentration (IC50) in assay [6] (screen: GDSC drug entry 1526) is greater than 5000 nM.
As for ME-180 (cervix, adherent), the AUC in assay [1] was 0.716; in assay [2], 0.455; in assay [3], 0.61; in assay [4], 0.972; in assay [5], 0.975; in assay [6] (screen: GDSC drug entry 1014) it was 0.879. Further, in assay [6] (screen: GDSC drug entry 1526), the AUC stood at 0.855. Also, the IC50 in assay [1] is 4230 nM; in assay [2], 239 nM; in assay [3], 650 nM; in assay [4], greater than 10200 nM; in assay [5] it was greater than 1020 nM; in assay [6] (screen: GDSC drug entry 1014), greater than 5000 nM. Further, in assay [6] (screen: GDSC drug entry 1526), the IC50 came out at 4260 nM.
On to MKN28 (stomach, adherent), for which the AUC in assay [1] was determined as 0.394; in assay [2], 0.748; in assay [3], 0.537; in assay [4], 0.68; in assay [5] it was 0.987; in assay [6] (screen: GDSC drug entry 1014), 0.802. Moreover, the half-inhibitory concentration (IC50) in assay [1] is 508 nM; in assay [2] it was 1680 nM; in assay [3], 405 nM; in assay [4], 2060 nM; in assay [5], greater than 1020 nM; in assay [6] (screen: GDSC drug entry 1014) it was 2530 nM.
MKN45 (stomach, adherent): the AUC in assay [1] came to 0.604; in assay [2], 0.879; in assay [3], 0.58; in assay [4], 0.784; in assay [5], 0.981; in assay [6] (screen: GDSC drug entry 1526), 0.818. The IC50 was 2090 nM in assay [1]; greater than 5120 nM in assay [2]; 560 nM in assay [3]; 5610 nM in assay [4]; greater than 1020 nM in assay [5]; 3830 nM in assay [6] (screen: GDSC drug entry 1526).
As for “NCI-H187 (small cell lung carcinoma, suspension)”, the AUC in assay [1] turned out to be 0.969; in assay [2] it was 0.519; in assay [3], 0.822; in assay [4], 0.984; in assay [5] it was 0.98; in assay [6] (screen: GDSC drug entry 1014), 0.986. Also, the AUC in assay [6] (screen: GDSC drug entry 1526) is 0.985. The IC50 was greater than 16000 nM in assay [1]; 361 nM in assay [2]; 3330 nM in assay [3]; greater than 10200 nM in assay [4]; greater than 1020 nM in assay [5]; greater than 5000 nM in assay [6] (screen: GDSC drug entry 1014). For the same cell line, the IC50 in assay [6] (screen: GDSC drug entry 1526) is greater than 5000 nM.

These data come from the supplement of paper PMC4967469.
